± gives the standard deviation of the averaged measurements. The list shows a part of the results.
Test system: PfAP2-LT AP2 domain (GST-tagged)
Assay: gcPBM binding intensity (ln(normalized median fluorescence intensity)); higher = stronger DNA binding
Method in brief: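 GST-tagged P. falciparum DNA-binding domains produced in E. coli were incubated for 1 h on an Agilent 4 × 180k array of primer-extended double-stranded 36-bp intergenic genomic probes with negative controls. Binding intensity is the highest Masliner-normalised natural-log median intensity across replicate spots of either probe orientation, with bound protein detected by Alexa488 anti-GST antibody at 488 nm.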

| Sequence | gcPBM binding intensity (ln) |
| --- | --- |
| CATTATTATGATAGTTGTACAATTTTTATAAAAAAT [XGTACX_site4411] | 8.66 ± 0.47 |
| GAAATAGAGAAACACACACACATATATTTATGTATT [CACACA_site3967] | 9.68 ± 0.25 |
| ATAAAAATAAAAAGATGTACGTATTTTTTTTTTTTT [XGTACX_site5329] | 8.69 ± 0.36 |
| TATAAATAAATGCGTACACACTAATAAAAAAAAAAA [CACACA_site4630] | 8.98 ± 0.49 |
| AATATATTTTAATACACACACACATATATATATATA [CACACA_site5969] | 9.64 ± 0.43 |
| TTTTTTTTAAATATCACACACATATAACATATTCTA [CACACA_site7687] | 8.88 ± 0.4 |
| ATATGTATATAAATGTGTACTTATAAATATATATAT [XGTACX_site3250] | 8.99 ± 0.3 |
| TGGAAAAATAGGCACACACACATATATACCTATATA [CACACA_site4843] | 9.56 ± 0.4 |
| TTTTTTTTTTTTGAGTGTACTAAAATATTACCTTTT [XGTACX_site646] | 8.49 ± 0.52 |
| AATATTATAAATGATACACACTTAAAATACACCCAC [CACACA_site5498] | 9.42 ± 0.11 |
| GAATTTATTTTATTTTCACACACAAAAATAAATATC [CACACA_site8762] | 8.94 ± 0.39 |
| TTCTTTAATAAAATAATCTCAAAGAAAATTTTTTCT [GTGCAC_negctrl_site589] | 7.91 ± 0.32 |
| TTATCCATTTTAATCACACATACTTTACTTTGGAAC [CACACA_site5584] | 8.75 ± 0.45 |
| AATAAATAGATATATACACACATATATGTGTACATA [CACACA_site7476] | 9.49 ± 0.29 |
| TATAAACATATAAAAAGTACATACCAATTAATATTA [XGTACX_site967] | 8.77 ± 0.49 |
| GGATAAAATGCTACGAGTACATAAGCATTTTTCCCT [XGTACX_site7796] | 8.78 ± 0.31 |
| TATTCTGTGTATAAAAGTACAAATATTTAAATGTAT [XGTACX_site8234] | 8.69 ± 0.44 |
| AATATATTCATCATATCAATATTGTCAAGCAAACGA [TGCATGCA_negctrl_site37] | 8.77 ± 0.45 |
| TTGTATATATTAAATTGTACTTATTTTTTGTATATA [XGTACX_site3251] | 8.64 ± 0.54 |
| TATATTATTTATATTTGTACACAGCGATATGAAATA [XGTACX_site987] | 8.56 ± 0.46 |
| TACAATTTAAAACACACACACAATAATACATATATA [CACACA_site1251] | 9.74 ± 0.35 |
| ATATTATTATAAACTTCACACATTTTATGGGTTTTT [CACACA_site4631] | 8.81 ± 0.43 |

| Sequence | gcPBM binding intensity (ln) |
| --- | --- |
| CATAAGCACAAGCACAAGCACACATTTATATATATA [CACACA_site882] | 9.07 ± 0.46 |
| CGCATATTTTATGTTTGTACTCATATGAATATCATA [XGTACX_site4717] | 8.72 ± 0.49 |
| TTTTACAAAATAAAAATATAGAATACGGTAAATTAT [GTGCAC_negctrl_site40] | 8.59 ± 0.35 |
| TAAAAATGTGGACACACACACATATTTATATTTAAT [CACACA_site6827] | 9.18 ± 0.36 |
| TGTTGATGATATTACACACCCAATGAGAAAAGGAAT [CACACA_site2072] | 9.04 ± 0.35 |
| AAATAAGAGCGTAGCACACACGCATTTTATAAATGT [CACACA_site741] | 9.19 ± 0.38 |
| TTTTTTTTTTTTTTTGCATGTTGTTTAATGTATTGT [TGCATGCA_site772] | 8.73 ± 0.5 |
| TATCATTTTATTATTCTACACACTTATCTATAATTA [CACACA_site7894] | 8.87 ± 0.56 |
| AAATATTTTTTTTCTACACACATACAAATATAGATT [CACACA_site7164] | 8.88 ± 0.54 |
| ATGCCCCATATAAACACACAAATAAAAAGAATATAC [CACACA_site7292] | 9.31 ± 0.45 |
| TATATTTTATAAAAAAGTACACATGAAAATGTATTT [XGTACX_site5889] | 8.49 ± 0.47 |
| ATATTTAAAGAATAAGTGCAAAATGTAATTAATTTT [GTGCAC_site9901] | 8.76 ± 0.42 |
| TATTTATTACTATGTAAACACACATGCAATATATGT [CACACA_site8288] | 9.1 ± 0.42 |
| TGTAGTCTGGAGAAACGTACACAGTATCTGGTAACA [XGTACX_site4938] | 8.7 ± 0.43 |
| AAAGGGGATATATGAACACACAAAAAAAAAATATAT [CACACA_site2896] | 9.13 ± 0.68 |
| TTTTTTCCTTTTAATTGTACACAGATATAATATATT [XGTACX_site2230] | 8.67 ± 0.47 |
| AAATTTTATTATAGCAGTACAATATAATATTATTAA [XGTACX_site1971] | 8.43 ± 0.47 |
| TGGTATGTTTTACAAAGTACCCATCGATTCTTATGT [XGTACX_site2822] | 8.82 ± 0.51 |
| ATATATATATATATATGTACTTATATATAATATAGA [XGTACX_site3488] | 9.22 |
| GTACTCTTCTCCAGACTGCACTATACGACTCGTACA [GTGCAC_site9770] | 9.1 ± 0.37 |
| AATATATTTTTCTACCGTACATAATAAAATATATAT [XGTACX_site1777] | 8.68 ± 0.42 |
| GAACCACTAAAATGAGCATGCTCATATTTACATATA [TGCATGCA_site1033] | 8.83 ± 0.34 |

| Sequence | gcPBM binding intensity (ln) |
| --- | --- |
| TATTTATTTATTTATTGTACATAAGTATATATTATA [XGTACX_site6566] | 8.63 ± 0.44 |
| AAAAAGTAGTAAAACAGTACAGTATTTATGCCTATT [XGTACX_site6434] | 9 ± 0.45 |
| AAAAAAAAAAAAAGTACACACTTTTGCGTACATGTA [CACACA_site7449] | 8.89 ± 0.43 |
| TAAAAAAAATAGTCAAGTACATAAGAAGGGAAGAAA [XGTACX_site8733] | 8.84 ± 0.49 |
| TTATTCATATTATCATGTACTTATATATATTGTCAT [XGTACX_site2231] | 8.94 ± 0.46 |
| ACTAAAAGATATATAATTTCTTTCTTATTTATTTTT [CACACA_negctrl_site842] | 8.32 ± 0.59 |
| TTTAATTTTTTTAATTCACACATTATTCCATCCTTT [CACACA_site5480] | 8.78 ± 0.54 |
| AATAAATAAGCAACATGTACATACAAATATATACAT [XGTACX_site8529] | 9.12 ± 0.38 |
| ATTTTCCATTGTGCTACACACAACGGTTCGCAATAA [CACACA_site2974] | 9.07 ± 0.4 |
| ATCTAATAAAAATACACACACATATGATTTGTGAAT [CACACA_site1867] | 9.22 ± 0.3 |
| TTTTGTTTATTATGATTCAAAATGATTTTATCTTTG [TGCATGCA_negctrl_site425] | 8.49 ± 0.48 |
| TATTATATATATAAATGTACTTATTTTAATTCCCCT [XGTACX_site8638] | 8.54 ± 0.47 |
| AAAAAAACATGAAACACACACAAATATTTATTTATA [CACACA_site6967] | 9.18 ± 0.37 |
| TCTTTTAAAAAAAAAGGAGGAACATAAAAAGTAGAA [XGTACX_negctrl_site272] | 8.52 ± 0.54 |
| ATATAATTAAAATGCTCACACACATAAAAAAAAATT [CACACA_site2148] | 9.12 ± 0.42 |
| TACATAATACATATAACACACACAATTATACATAAA [CACACA_site9060] | 9.47 ± 0.21 |
| ATAATTACAAAATAAACACACATATAGATTTATATG [CACACA_site6343] | 8.83 ± 0.38 |
| CACATATATATGTGTGCATGTTGTATTATATATTTA [TGCATGCA_site632] | 9.93 ± 0.26 |
| ATTTTATTTTTTAAAGGTACAGTTACAGCTTATATA [XGTACX_site7513] | 8.57 ± 0.46 |
| GTACATATATACATTACACACGGTTTGATTTAAAAA [CACACA_site3379] | 8.98 ± 0.41 |
| TAATATATTAACATGGGTACATATTATTTCATGTGT [XGTACX_site5985] | 9.02 ± 0.47 |
| ATATTTAAATGTAATACATGCAAATTTGAACATTTT [TGCATGCA_site736] | 8.85 ± 0.46 |

| Sequence | gcPBM binding intensity (ln) |
| --- | --- |
| AAAAAAAAAAAAATCACACATATGTATTTATATATA [CACACA_site5790] | 8.62 ± 0.33 |
| AAAAATTTAAGTGGGGGTACATTTTTTTAACACCTT [XGTACX_site1093] | 9.09 ± 0.26 |
| AACAAACACGGACACACACACACACTAGAATGATTA [CACACA_site5364] | 10.2 ± 0.31 |
| TGTATAAGTATTAATACACACACAAAATAATAAAAA [CACACA_site9156] | 9.36 ± 0.4 |
| TACTTACATTATTTATTTATATAAAAAGTTAATTAT [XGTACX_negctrl_site433] | 8.32 ± 0.43 |
| ATAATTAACAAATACACACACACACCCCCACAAAAA [CACACA_site518] | 10.5 ± 0.26 |
| AGTATTCATAAAAATACACACATGGAAAAATAAACT [CACACA_site6796] | 9.23 ± 0.33 |
| TATATATTTTTTTTTTGTACTCACAATATATGTATG [XGTACX_site8024] | 8.86 ± 0.52 |
| AAATTAAAATATAATACACACATAAAAAAAAAAAAA [CACACA_site4183] | 8.95 ± 0.52 |
| AATTTTTTATATGTCACACATTTATTATTATTATTA [CACACA_site4198] | 8.83 ± 0.48 |
| TGTAATATAAAATTTTGTACTCAAAAATTTATATAT [XGTACX_site3252] | 8.32 ± 0.36 |
| ACTTATAAAAACATATACCCCATCGCATTTTTTCCA [XGTACX_negctrl_site177] | 8.87 ± 0.18 |
| TTCCAAACCTCATTATGGAAAATAAAAAAATAAAAA [XGTACX_negctrl_site17] | 8.31 ± 0.49 |
| TTCCAAAAAGTTATTACACACATATGTGCACATATA [CACACA_site6465] | 9.09 ± 0.35 |
| ATAAAATATTTTTGAACATGCAGGTAAAAAATAAAA [TGCATGCA_site1019] | 8.69 ± 0.5 |
| AGAATATTATATTATGCATGCATATAGAAAAATATA [TGCATGCA_site302] | 8.84 ± 0.31 |
| TATATTTATAGGTACACACACACATATAAATAAATA [CACACA_site6345] | 9.64 ± 0.25 |
| TTTATTAGTAATTATACACACATATAAAATGAATAA [CACACA_site6754] | 8.6 ± 0.54 |
| AAAAAAAAAAAAAACACACACATATATATATATATA [CACACA_site1891] | 10.1 ± 0.37 |
| ATAAAATTATATTTTGCATGCAGGCCTTTTTCTTAA [TGCATGCA_site1030] | 9.07 ± 0.42 |
| ATATATTTTTTGAATACACACATATTATAGGTAATA [CACACA_site6709] | 8.82 ± 0.35 |
| TAGTAGTTATCACTAACATGCAATAATATTATTTAA [TGCATGCA_site161] | 8.6 ± 0.42 |

— the supplement of paper PMC11417369
